Test results reported in patent US11178870B2 (priority 2017, dated 2021).

What was measured:
Magnaporthe grisea = assay type: in vivo; conditions: Table 7, Test A
[1] = system: Colletotrichum orbiculare; conditions: 250 ppm sprayed (2.5 ml/pot) before inoculation; assessed 6 to 10 days after inoculation
Phytophthora infestans = assay type: in vivo; conditions: Table 7, Test F

Q: `CCn1c(-c2ccccc2Cl)c(-n2cnc(Cl)c2Cl)cc(Cl)c1=O` [Compound 209] was tested. Which “control value, Test A (blast on rice)” value (Magnaporthe grisea) did it give?
A: H (H shows the control value more than 50%)

Q: What about the “control value, Test H (anthracnose on cucumber)” value (from here on “control value, Test H”) [1] of the same compound?
A: H (H shows the control value more than 50%)

Q: And the “control value, Test F (late blight on tomato)” value (from here on “control value, Test F”) (Phytophthora infestans)?
A: L (L shows the control value of 50% or less)

Q: What does the source list for `COc1cc(F)c(-c2c(-n3cc(Cl)cn3)cc(Br)c(=O)n2CC(F)F)c(F)c1` [Compound 222]?
A: control value, Test A (blast on rice) (Magnaporthe grisea): H (H shows the control value more than 50%); control value, Test H (anthracnose on cucumber) [1]: H (H shows the control value more than 50%); control value, Test F (late blight on tomato) (Phytophthora infestans): L (L shows the control value of 50% or less)

Q: `CCn1c(-c2ccccc2C)c(-n2cc(C)cn2)cc(Br)c1=O` [Compound 237] was tested. Which “control value, Test A (blast on rice)” value (Magnaporthe grisea) did it give?
A: L (L shows the control value of 50% or less)

Q: And the “control value, Test H” value [1]?
A: L (L shows the control value of 50% or less)

Q: What about the “control value, Test F” value (Phytophthora infestans) of the same compound?
A: L (L shows the control value of 50% or less)

Q: Which results are given for `CCn1c(-c2ccc(OC)cc2F)c(-n2cc(F)cn2)ccc1=O` [Compound 300]?
A: control value, Test A (blast on rice) (Magnaporthe grisea): H (H shows the control value more than 50%); control value, Test H (anthracnose on cucumber) [1]: H (H shows the control value more than 50%); control value, Test F (late blight on tomato) (Phytophthora infestans): L (L shows the control value of 50% or less)

Q: `CCn1c(-c2c(F)cccc2F)c(-n2cc(F)cn2)cc(Br)c1=O` [Compound 320] was tested. Which “control value, Test A (blast on rice)” value (Magnaporthe grisea) did it give?
A: H (H shows the control value more than 50%)

Q: And the “control value, Test H” value [1]?
A: H (H shows the control value more than 50%)

Q: And the “control value, Test F” value (Phytophthora infestans)?
A: L (L shows the control value of 50% or less)

Q: `Cc1cnn(-c2cc(Br)c(=O)n(CC(F)F)c2-c2ccc(F)cc2F)c1Cl` [Compound 256] was tested. Which “control value, Test A (blast on rice)” value (Magnaporthe grisea) did it give?
A: H (H shows the control value more than 50%)

Q: And the “control value, Test H” value [1]?
A: H (H shows the control value more than 50%)

Q: What about the “control value, Test F” value (Phytophthora infestans) of the same compound?
A: L (L shows the control value of 50% or less)

Q: Which “control value, Test A (blast on rice)” value (Magnaporthe grisea) does the source give for `CCn1c(-c2ccc(F)cc2Cl)c(-n2cc(C)cn2)cc(Br)c1=O` [Compound 335] here?
A: H (H shows the control value more than 50%)

Q: With `CCn1c(-c2ccccc2OC)c(-n2cc(Cl)cn2)cc(Br)c1=O` [Compound 241] as the compound, how does the “control value, Test A (blast on rice)” value (Magnaporthe grisea) read?
A: L (L shows the control value of 50% or less)

Q: What about the “control value, Test H” value [1] of the same compound?
A: L (L shows the control value of 50% or less)

Q: And the “control value, Test F” value (Phytophthora infestans)?
A: L (L shows the control value of 50% or less)

Q: `O=c1c(Cl)cc(-n2cc(Cl)cn2)c(-c2ccccc2Br)n1CC(F)F` [Compound 290] was tested. Which “control value, Test A (blast on rice)” value (Magnaporthe grisea) did it give?
A: L (L shows the control value of 50% or less)

Q: And the “control value, Test H” value [1]?
A: L (L shows the control value of 50% or less)

Q: And the “control value, Test F” value (Phytophthora infestans)?
A: H (H shows the control value more than 50%)

Q: What does the source list for `CCn1c(-c2ccc(F)cc2Br)c(-n2ncc(C)c2Cl)cc(Cl)c1=O` [Compound 331]?
A: control value, Test A (blast on rice) (Magnaporthe grisea): H (H shows the control value more than 50%); control value, Test H (anthracnose on cucumber) [1]: H (H shows the control value more than 50%); control value, Test F (late blight on tomato) (Phytophthora infestans): L (L shows the control value of 50% or less)

Q: Which results are given for `O=c1ccc(-n2cc(F)cn2)c(-c2ccc(F)cc2F)n1CC(F)F` [Compound 284]?
A: control value, Test A (blast on rice) (Magnaporthe grisea): H (H shows the control value more than 50%); control value, Test H (anthracnose on cucumber) [1]: H (H shows the control value more than 50%); control value, Test F (late blight on tomato) (Phytophthora infestans): L (L shows the control value of 50% or less)

Q: For `O=c1ccc(-n2cc(Cl)cn2)c(-c2ccc(F)cc2Cl)n1CC(F)F` [Compound 233], which “control value, Test A (blast on rice)” value (Magnaporthe grisea) is on record?
A: H (H shows the control value more than 50%)

Q: What about the “control value, Test H” value [1] of the same compound?
A: L (L shows the control value of 50% or less)

Q: And the “control value, Test F” value (Phytophthora infestans)?
A: L (L shows the control value of 50% or less)
